# From a collection of fitness landscapes (doi:10.1126/science.1257360)
# The list shows a part of the results.
# B1: PhoQ; a variant is named by its letters at X, in order, P23837 (parent)
# chain: MKKLLRLFFPLSLRVRFLLATAAVVLVLSLAYGMVALIGYSVSFDKTTFRLLRGESNLFYTLAKWENNKLHVELPENIDKQSPTMTLIYDENGQLLWAQRDVPWLMKMIQPDWLKSNGFHEIEADVNDTSLLLSGDHSIQQQLQEVREDDDDAEMTHSVAVNVYPATSRMPKLTIVVVDTIPVELKSSYMVWSWFIYVLSANLLLVIPLLWVAAWWSLRPIEALAKEVRELEEHNRELLNPATTRELTSLVRNLNRLLKSERERYDKYRTTLTDLTHSLKTPLXXLQXXLRSLRSEKMSVSDAEPVMLEQISRISQQIGYYLHRASMRGGTLLSRELHPVAPLLDNLTSALNKVYQRKGVNISLDISPEISFVGEQNDFVEVMGNVLDNACKYCLEFVEISARQTDEHLYIVVEDDGPGIPLSKREVIFDRGQRVDTLRPGQGVGLAVAREITEQYEGKIVAGESMLGGARMEVIFGRQHSAPKDE
# Variants of: B1
# Assay: enrichment ratio after two sorts for PhoP signalling (ratio (wild type AVST 3.29)); higher = more functional
# Conditions: with PhoP (E. coli)
row,Variant,enrichment ratio
1,SLMV,7.89
2,MIQL,≤ 0.25
3,HFVR,≤ 0.25
4,YDQR,≤ 0.25
5,QGTC,9.68
6,PEWE,≤ 0.25
7,LFEM,≤ 0.25
8,ECFA,≤ 0.25
9,RSHN,≤ 0.25
10,MYIL,≤ 0.25
11,SMRF,≤ 0.25
12,FFWA,≤ 0.25
13,YVVQ,≤ 0.25
14,QQGK,≤ 0.25
15,TANW,≤ 0.25
16,YCAT,0.489
17,NHIP,≤ 0.25
18,DSDW,≤ 0.25
19,PEDS,≤ 0.25
20,GDGL,≤ 0.25
21,YIPY,≤ 0.25
22,FWAW,≤ 0.25
23,QVMC,≤ 0.25
24,MPSR,≤ 0.25

row,Variant,enrichment ratio
1,INMC,≤ 0.25
2,GQDG,≤ 0.25
3,MMRG,≤ 0.25
4,FHST,≤ 0.25
5,LNTC,≤ 0.25
6,HRTQ,≤ 0.25
7,TTAD,≤ 0.25
8,SDGH,≤ 0.25
9,VQKK,≤ 0.25
10,YHPY,≤ 0.25
11,EPLY,≤ 0.25
12,HGTW,≤ 0.25
13,DGQQ,≤ 0.25
14,LAKR,≤ 0.25
15,NATH,≤ 0.25
16,EHKS,≤ 0.25
17,FPHN,≤ 0.25
18,TYRL,0.913
19,DLAF,≤ 0.25
20,TVEL,3.54
21,YIHF,≤ 0.25
22,HPDS,≤ 0.25
23,QRHC,≤ 0.25
24,YIHH,≤ 0.25

row,Variant,enrichment ratio
1,WWVV,≤ 0.25
2,FPRT,1.3
3,RACD,≤ 0.25
4,MCPR,≤ 0.25
5,DPFA,≤ 0.25
6,MQEE,≤ 0.25
7,NSEH,≤ 0.25
8,PVVK,3.47
9,NRYV,≤ 0.25
10,PYPW,≤ 0.25
11,LRRF,≤ 0.25
12,LAEN,≤ 0.25
13,FMLI,≤ 0.25
14,YDPD,≤ 0.25
15,GRDV,≤ 0.25
16,ANRC,≤ 0.25
17,AYFW,≤ 0.25
18,QRWT,≤ 0.25
19,ATTM,16.6
20,SNDQ,≤ 0.25
21,EEYY,≤ 0.25
22,TMIQ,≤ 0.25
23,ALFP,≤ 0.25
24,MQMY,3.17

row,Variant,enrichment ratio
1,SFLF,1.1
2,PKLF,≤ 0.25
3,RWYG,≤ 0.25
4,IQYH,≤ 0.25
5,LIID,≤ 0.25
6,GQHP,≤ 0.25
7,RYAR,≤ 0.25
8,LRCI,≤ 0.25
9,HKSS,≤ 0.25
10,QTYC,0.887
11,AVLE,≤ 0.25
12,PFKR,≤ 0.25
13,KYPE,≤ 0.25
14,QQAI,≤ 0.25
15,YYEM,≤ 0.25
16,HTPT,≤ 0.25
17,YNMC,≤ 0.25
18,HLCK,≤ 0.25
19,ILCE,≤ 0.25
20,VDAG,≤ 0.25
21,DCFA,≤ 0.25
22,HYQM,≤ 0.25
23,FNCY,≤ 0.25
24,WMPD,≤ 0.25

row,Variant,enrichment ratio
1,TTFE,≤ 0.25
2,TSNM,3.95
3,VVYT,≤ 0.25
4,VNNM,≤ 0.25
5,LSFD,≤ 0.25
6,HEPW,≤ 0.25
7,KHFI,≤ 0.25
8,FYRK,≤ 0.25
9,QDTD,≤ 0.25
10,IFLR,≤ 0.25
11,LTHW,≤ 0.25
12,GCWR,≤ 0.25
13,AAFV,≤ 0.25
14,DMQF,≤ 0.25
15,VLKG,≤ 0.25
16,GCCR,≤ 0.25
17,YSEQ,≤ 0.25
18,FRDL,≤ 0.25
19,HSNW,≤ 0.25
20,AWIW,≤ 0.25
21,MNHR,≤ 0.25
22,AMND,≤ 0.25
23,RQDI,≤ 0.25
24,TTMD,0.883

row,Variant,enrichment ratio
1,TTWS,11.9
2,LQGW,≤ 0.25
3,YWWR,≤ 0.25
4,KKQL,≤ 0.25
5,GLGP,≤ 0.25
6,WSWR,≤ 0.25
7,KKCF,≤ 0.25
8,IIFT,≤ 0.25
9,RDPD,≤ 0.25
10,KDWA,≤ 0.25
11,LTPQ,≤ 0.25
12,WEWW,≤ 0.25
13,KFAK,≤ 0.25
14,HFGS,≤ 0.25
15,DYLD,≤ 0.25
16,KIAL,≤ 0.25
17,EVYM,≤ 0.25
18,YFKA,≤ 0.25
19,DIAW,≤ 0.25
20,HHKV,≤ 0.25
21,RTAD,≤ 0.25
22,IQIP,≤ 0.25
23,NIWT,≤ 0.25
24,HGSP,≤ 0.25

row,Variant,enrichment ratio
1,IFLE,≤ 0.25
2,TCVP,≤ 0.25
3,WARR,≤ 0.25
4,HGIR,≤ 0.25
5,HATP,≤ 0.25
6,DWQC,≤ 0.25
7,QGRQ,≤ 0.25
8,VLMR,≤ 0.25
9,TWVI,≤ 0.25
10,YLLF,≤ 0.25
11,KLAK,≤ 0.25
12,IMWL,≤ 0.25
13,VRSR,≤ 0.25
14,GWSR,≤ 0.25
15,FFYS,≤ 0.25
16,DASR,≤ 0.25
17,LHQK,≤ 0.25
18,FPCN,≤ 0.25
19,CIIL,≤ 0.25
20,GFGT,≤ 0.25
21,FVIP,≤ 0.25
22,DLWE,≤ 0.25
23,AMIC,≤ 0.25
24,FYMR,≤ 0.25

row,Variant,enrichment ratio
1,TLVS,≤ 0.25
2,AHNC,≤ 0.25
3,YACS,0.363
4,QYCM,≤ 0.25
5,KSSC,≤ 0.25
6,PVKS,≤ 0.25
7,YKTS,≤ 0.25
8,MTEI,≤ 0.25
9,GEME,≤ 0.25
10,MRCP,≤ 0.25
11,VYKH,≤ 0.25
12,KKEP,≤ 0.25
13,NIYD,≤ 0.25
14,KIGK,≤ 0.25
15,PVQR,≤ 0.25
16,WNSG,≤ 0.25
17,VSKA,0.389
18,SQLW,2.64
19,GSVN,≤ 0.25
20,KHNE,≤ 0.25
21,MEKC,≤ 0.25
22,YAVW,≤ 0.25
23,SQCE,24.1
24,STDF,≤ 0.25

row,Variant,enrichment ratio
1,RMTG,≤ 0.25
2,YAFT,≤ 0.25
3,MQWL,≤ 0.25
4,VFLS,≤ 0.25
5,MIFP,≤ 0.25
6,HMDK,≤ 0.25
7,LIVF,≤ 0.25
8,KHKI,≤ 0.25
9,IDID,≤ 0.25
10,VQQW,≤ 0.25
11,YPVV,≤ 0.25
12,QGNF,≤ 0.25
13,NMYQ,≤ 0.25
14,FYAG,≤ 0.25
15,LQGN,≤ 0.25
16,EHMP,≤ 0.25
17,FTTE,≤ 0.25
18,MMST,0.699
19,RDGF,≤ 0.25
20,ETML,≤ 0.25
21,DEEV,≤ 0.25
22,ARNR,≤ 0.25
23,KPGM,≤ 0.25
24,DDGG,≤ 0.25

row,Variant,enrichment ratio
1,KLLG,≤ 0.25
2,KLCS,≤ 0.25
3,AVMS,7.88
4,FRHI,≤ 0.25
5,EDWL,≤ 0.25
6,WCKN,≤ 0.25
7,TWPA,≤ 0.25
8,LYQE,≤ 0.25
9,GMIL,≤ 0.25
10,YMNC,≤ 0.25
11,FEWH,≤ 0.25
12,AECH,16.5
13,NEML,0.665
14,MIWL,3.25
15,WYYQ,≤ 0.25
16,GTYM,0.291
17,VEIN,≤ 0.25
18,DEIY,≤ 0.25
19,ECMM,≤ 0.25
20,YYQQ,≤ 0.25
21,GNDK,≤ 0.25
22,NYDE,≤ 0.25
23,HIVY,≤ 0.25
24,PFSR,≤ 0.25

row,Variant,enrichment ratio
1,NRPV,≤ 0.25
2,DWYI,≤ 0.25
3,QANA,≤ 0.25
4,RMVR,≤ 0.25
5,YSCQ,8.57
6,DCVH,≤ 0.25
7,TRDI,≤ 0.25
8,AYVL,≤ 0.25
9,FFGN,≤ 0.25
10,RWCG,≤ 0.25
11,ETQN,≤ 0.25
12,PEIF,≤ 0.25
13,RSIH,≤ 0.25
14,RKYS,≤ 0.25
15,DGFG,≤ 0.25
16,RVWM,≤ 0.25
17,FRLE,≤ 0.25
18,KLIW,≤ 0.25
19,FFAC,≤ 0.25
20,FKCK,≤ 0.25
21,LKGD,≤ 0.25
22,WCAY,≤ 0.25
23,QMPA,≤ 0.25
24,SAYM,0.972

row,Variant,enrichment ratio
1,KQTL,≤ 0.25
2,TGIN,≤ 0.25
3,AGMY,20
4,LKSL,≤ 0.25
5,FTTK,≤ 0.25
6,NKFE,≤ 0.25
7,WHNM,≤ 0.25
8,QTHC,≤ 0.25
9,GTIA,≤ 0.25
10,QTVT,≤ 0.25
11,PEEF,≤ 0.25
12,AILF,2.9
13,SHAF,≤ 0.25
14,HHKK,≤ 0.25
15,GKVR,≤ 0.25
16,WARS,≤ 0.25
17,WPNS,≤ 0.25
18,VLHP,≤ 0.25
19,KAHA,≤ 0.25
20,WIAR,≤ 0.25
21,SVAD,≤ 0.25
22,AWYS,≤ 0.25
23,NKNV,≤ 0.25
24,QDQN,≤ 0.25

row,Variant,enrichment ratio
1,WMQS,≤ 0.25
2,QTNT,≤ 0.25
3,NCTL,≤ 0.25
4,AGVF,8.28
5,PMEQ,≤ 0.25
6,LSDV,≤ 0.25
7,APCH,≤ 0.25
8,YTSF,≤ 0.25
9,NHDA,≤ 0.25
10,YNKK,≤ 0.25
11,DFCP,≤ 0.25
12,ISEF,0.563
13,GMMT,≤ 0.25
14,HPYE,≤ 0.25
15,NICQ,≤ 0.25
16,KNKC,≤ 0.25
17,RSAM,≤ 0.25
18,FGPC,≤ 0.25
